{"source": "PubChem BioAssay AID1460", "about": "(National Center for Advancing Translational Sciences (NCATS), 2008)", "note": "Hit rate of the full screen: of about 270,000 compounds, about 5,800 (2.1%) were called active. Inconclusive results, whose numbers are uncertain, are shown with a selection of clear calls. The call rests on the fitted dose curve; in most records, active means well fitted inhibition curve with a large enough effect; inconclusive means small, poorly fitted or top-dose-only effect; inactive means flat fitted curve, though single readings scatter. Potencies of inconclusive entries are doubtful fits and often do not repeat. On the % scale 0 is the no-effect control and ±100 the full control effect; potency means the concentration at half of the fitted maximal effect; tags describe the fitted curve by direction and shape."}
{"target": "Microtubule-associated protein tau (Homo sapiens) (UniProt P10636)", "sequence (P10636 whole entry, looked up, the tested form may be a part)": "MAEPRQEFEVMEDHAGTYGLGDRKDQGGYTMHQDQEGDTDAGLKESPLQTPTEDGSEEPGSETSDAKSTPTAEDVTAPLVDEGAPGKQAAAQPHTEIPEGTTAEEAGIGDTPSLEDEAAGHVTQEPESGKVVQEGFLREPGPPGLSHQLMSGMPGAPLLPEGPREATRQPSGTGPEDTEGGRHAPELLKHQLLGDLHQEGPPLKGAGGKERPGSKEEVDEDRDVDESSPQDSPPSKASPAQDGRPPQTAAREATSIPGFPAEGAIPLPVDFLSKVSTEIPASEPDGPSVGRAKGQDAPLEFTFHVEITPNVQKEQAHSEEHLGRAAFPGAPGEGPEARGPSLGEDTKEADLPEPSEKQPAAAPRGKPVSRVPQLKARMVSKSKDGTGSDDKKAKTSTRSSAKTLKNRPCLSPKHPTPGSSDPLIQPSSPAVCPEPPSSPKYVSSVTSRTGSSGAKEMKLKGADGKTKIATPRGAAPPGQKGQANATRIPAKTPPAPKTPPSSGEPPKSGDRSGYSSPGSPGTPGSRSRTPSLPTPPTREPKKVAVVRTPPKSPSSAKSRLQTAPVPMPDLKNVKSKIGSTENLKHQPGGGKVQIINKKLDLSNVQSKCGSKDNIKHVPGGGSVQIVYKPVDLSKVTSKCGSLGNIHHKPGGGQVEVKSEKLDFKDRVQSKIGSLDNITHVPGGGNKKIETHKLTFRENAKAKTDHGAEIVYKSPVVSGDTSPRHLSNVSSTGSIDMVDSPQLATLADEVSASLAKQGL", "assay": "qHTS for Inhibitors of Tau Fibril Formation, Thioflavin T Binding; further: nearly all actives have a fitted effect of over 55% in size", "conditions": "recombinant tau K18 P301L (four-repeat tau fragment), heparin-induced fibrillization, ThT fluorescence; series mostly up to 57.4 µM; activity, negative = inhibition: at the top concentration", "outline": "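Heparin-induced (20 uM) aggregation of recombinant human K18 P301L tau, 15 uM unlabeled with 0.24 uM labeled, pH 7 acetate buffer, 6 hr at 37 C with compound. Fibrils quantified by 30 uM ThT fluorescence after 1 hr ambient incubation.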"}
{"compound": "COc1ccc(/C=N/Nc2nc3ccccc3[nH]2)c(OC)c1OC", "Potency": "inconclusive: 15.8 µM [inhibitor, partial curve]"}
{"compound": "CSc1cccc(-n2c(C)cc(C(N)=O)c2C)c1", "activity, negative = inhibition": "inactive: -8.99%"}
{"compound": "CCc1ccc(NC(=O)CSC2=Nc3ccccc3C3=NC(CC(=O)NCc4ccccc4)C(=O)N23)cc1", "note": "(centres undefined)", "Potency": "inconclusive: 20 µM [inhibitor, single point]"}
{"compound": "O=C(Cn1ncc2c3ccccc3n(Cc3cccc(Cl)c3)c2c1=O)NC1CCCCCC1", "activity, negative = inhibition": "inactive: -16.5%"}
{"compound": "CCOC(=O)N/N=C(/c1ccccc1)C1CCCCC1", "activity, negative = inhibition": "inactive: 1.54%"}
{"compound": "CCN(CC)S(=O)(=O)c1ccc2c(c1)c(=O)c(C(=O)N1CCN(c3ccc(F)cc3)CC1)cn2C", "Potency": "inconclusive: 39.8 µM [inhibitor, single point]"}
{"compound": "COc1ccc(/C=C/C(=O)Nc2ccccc2C(=O)O)cc1", "Potency": "inconclusive: 4.47 µM [activator, partial curve]"}
{"compound": "Cn1ccc2c(OCC(=O)Nc3cc(C(F)(F)F)ccc3Cl)cccc2c1=O", "activity, negative = inhibition": "inactive: -14.8%"}
{"compound": "O=C(NCCCc1ccccc1)C1CCN(C(=O)N2CCOc3ccc(Cl)cc32)CC1", "Potency": "inconclusive: 25.1 µM [inhibitor, single point]"}
{"compound": "CC(=O)Nc1sc(/C(C#N)=C/c2ccc(Cl)c(Cl)c2)nc1-c1ccc(C)cc1", "Potency": "inconclusive: 1 µM [activator, full curve]"}
{"compound": "CCn1c(/C=C2\\C(=O)N(C)c3ccccc32)nc2ccccc2c1=O", "Potency": "inconclusive: 14.1 µM [inhibitor, partial curve]"}
{"compound": "Cc1ccc(C)c(-n2cc(-c3ccc(Cl)cc3)nc2SCC(=O)NC2CCS(=O)(=O)C2)c1", "note": "(centres undefined)", "Potency": "inconclusive: 44.7 µM [inhibitor, single point]"}
{"compound": "COc1cccc(-c2csc(NC3OC(=O)c4c3ccc(OC)c4OC)n2)c1", "note": "(centres undefined)", "Potency": "inconclusive: 11.2 µM [inhibitor, partial curve]"}
{"compound": "Cc1ccc(Sc2ccc(/C=C3/C(=O)NN(c4ccccc4)C3=O)o2)cc1", "Potency": "active: 12.6 µM"}
{"compound": "COC(=O)c1[nH]c2ccc(F)cc2c1NC(=O)CCN1CC(C)OC(C)C1", "note": "(centres undefined)", "activity, negative = inhibition": "inactive: 2.34%"}
{"compound": "CCC(Sc1nncn2c1cc1oc(C)cc12)C(=O)Nc1ccc(F)cc1", "note": "(centres undefined)", "Potency": "inconclusive: 3.55 µM [inhibitor, full curve]"}
{"compound": "COC(=O)CCCCCNc1ccc(C(=O)OC)cc1N", "Potency": "inconclusive: 7.94 µM [inhibitor, partial curve]"}
{"compound": "O=C1c2ccccc2C(Nc2cccc(C(F)(F)F)c2)N1Cc1ccco1", "note": "(centres undefined)", "activity, negative = inhibition": "inactive: -20.3%"}
{"compound": "O=C1CCCC2=C1C(c1ccc(O)c(O)c1)c1c(ccc3ncccc13)N2", "note": "(centres undefined)", "Potency": "inconclusive: 15.8 µM [inhibitor, partial curve]"}
{"compound": "COc1cccc(NC(=O)Cn2c(=O)n(-c3ccc(C)cc3)c(=O)c3ccc(C(=O)NCc4ccco4)cc32)c1", "Potency": "inconclusive: 39.8 µM [activator, single point]"}
{"compound": "CC(=O)N1/C(=C/c2ccc(N(C)C)cc2)C(=O)c2ccccc21", "Potency": "active: 10 µM"}
{"compound": "CCN(CC)c1ccc(NC(=O)c2cccc(C)c2OC)c(C)c1", "Potency": "inconclusive: 7.08 µM [inhibitor, partial curve]"}
{"compound": "COc1ccc(N2CCN(C(=O)Cc3ccc(-n4c(=O)[nH]c5ccccc5c4=O)cc3)CC2)cc1", "Potency": "inconclusive: 15.8 µM [inhibitor, partial curve]"}
{"compound": "CS(=O)(=O)N1CCC(N2CCN(Cc3ccccc3)C(=O)C2=O)CC1", "activity, negative = inhibition": "inactive: 2.26%"}
{"compound": "C/C(=N/Nc1ccc([N+](=O)[O-])cc1)c1ccc(C)cc1C", "Potency": "active: 4.47 µM"}
{"compound": "O=C1CCSC2(C(=O)N(Cc3ccc(F)cc3)c3ccccc32)N1c1ccc(F)c(F)c1", "note": "(centres undefined)", "Potency": "inconclusive: 31.6 µM [inhibitor, single point]"}
{"compound": "CO[C@@H]1/C=C\\CC(=O)N2CCC[C@@H]2C(=O)OC[C@H](C)C(=O)OC[C@H]1C", "activity, negative = inhibition": "inactive: -6.93% [at 11.5 µM]"}
{"compound": "Cc1nn(CCCC(=O)N2CCc3ccccc3C2)c(=O)c2cc3sccc3n12", "Potency": "inconclusive: 14.1 µM [inhibitor, partial curve]"}
{"compound": "Cc1ccc2[nH]c(CSc3nnc(NC(=O)c4ccc(Cl)cc4)s3)cc(=O)c2c1", "activity, negative = inhibition": "inactive: 6.45%"}
{"compound": "COc1ccc(OC)c(CCNc2nc3ccccc3c3nc(-c4cccnc4)nn23)c1", "activity, negative = inhibition": "inactive: 0.0473%"}
{"compound": "O=C(CSc1nc(C2CC2)nc2ccccc12)N1CCc2ccccc2C1", "Potency": "inconclusive: 15.8 µM [inhibitor, partial curve]"}
{"compound": "O=C1NC2(CCCCCC2)C(=O)N1Cc1ccc([N+](=O)[O-])cc1", "Potency": "inconclusive: 14.1 µM [inhibitor, partial curve]"}
{"compound": "CCOC(=O)c1ccc(CNC(=O)C(Cc2c[nH]c3ccccc23)NC(C)=O)o1", "note": "(centres undefined)", "Potency": "inconclusive: 39.8 µM [inhibitor, single point]"}
{"compound": "Cc1cccc(NC2SC(=O)N(c3ccccc3)C2=O)c1", "note": "(centres undefined)", "Potency": "inconclusive: 39.8 µM [inhibitor, single point]"}
{"compound": "CC(C)(C)OC(=O)N1CCC(c2c(C(=O)NCCN3CCC(Cc4ccccc4)CC3)cnn2-c2ccc(F)cc2)CC1", "activity, negative = inhibition": "inactive: -15.8%"}
{"compound": "O=C(CSCc1cc(=O)c2cc(F)ccc2[nH]1)Nc1ccccc1Cl", "activity, negative = inhibition": "inactive: 2.3%"}
{"compound": "COc1ccc(-c2[nH]nc3c2C(c2ccncc2)C(C#N)=C(N)O3)cc1", "note": "(centres undefined)", "Potency": "inconclusive: 28.2 µM [inhibitor, partial curve]"}
{"compound": "O=C(CNc1ccccc1)N/N=C/c1ccc([N+](=O)[O-])o1", "Potency": "inconclusive: 17.8 µM [inhibitor, single point]"}
{"compound": "COc1cc(/C=C(\\C#N)c2nc3ccccc3o2)ccc1O", "Potency": "active: 7.94 µM"}
{"compound": "O=C1CC(/C=C/c2ccccc2)=Nc2ccccc2N1", "Potency": "inconclusive: 25.1 µM [inhibitor, single point]"}
{"compound": "Cc1ccccc1OCc1nnc(SCC(=O)Nc2ccc3c(c2)OCO3)n1C", "Potency": "inconclusive: 17.8 µM [inhibitor, single point]"}
{"compound": "CCOc1ccc(NC(=O)Cn2cc(C(=O)c3ccco3)c3ccccc32)cc1", "Potency": "inconclusive: 39.8 µM [inhibitor, single point]"}
{"compound": "Cc1cccc(CN2C(=O)N/C(=C/c3ccc(C)s3)C2=O)c1", "Potency": "inconclusive: 15.8 µM [inhibitor, partial curve]"}
{"compound": "CCOC(=O)Cc1ncccc1C(=O)Nc1ccc(OC(F)(F)F)cc1", "Potency": "inconclusive: 7.94 µM [inhibitor, partial curve]"}
{"compound": "O=C(NC(=S)NC1CCCCCCCCCCC1)c1cccnc1", "activity, negative = inhibition": "inactive: -6.27%"}
{"compound": "Cc1oc2c(c1C(=O)O)C(=O)c1ccccc1C2=O", "Potency": "inconclusive: 17.8 µM [inhibitor, single point]"}
{"compound": "Cc1ccccc1N=C/C=C1/C=C(c2ccccc2)OC(C)(C)O1", "Potency": "inconclusive: 20 µM [inhibitor, partial curve]"}
{"compound": "CCCOC(=O)c1c(N)sc(C(=O)OCC)c1C", "Potency": "inconclusive: 17.8 µM [inhibitor, partial curve]"}
{"compound": "CCCN(C(=O)c1coc(=O)c2ccccc12)c1ccccc1C", "activity, negative = inhibition": "inactive: -2.6%"}
{"compound": "O=C(NCc1csc(-c2cccs2)n1)Nc1ccc(F)cc1F", "Potency": "inconclusive: 39.8 µM [inhibitor, single point]"}
{"compound": "COc1ccc(OC)c(CCNC(=O)C2CCN(c3nnc(-n4cccc4)s3)CC2)c1", "Potency": "inconclusive: 15.8 µM [inhibitor, partial curve]"}
{"compound": "COc1cc(C2c3cc4c(cc3C(O)[C@H]3COC(=O)C23)OCO4)cc(OC)c1OC", "note": "(some centres undefined)", "Potency": "inactive"}
{"compound": "CC(=O)c1cccc(NC(=S)NC(=O)c2cccc(C)c2)c1", "activity, negative = inhibition": "inactive: -19.2%"}
{"compound": "Cc1cc(S(=O)(=O)C(CNC(=O)COc2ccc(Cl)cc2)c2cccs2)ccc1F", "note": "(centres undefined)", "Potency": "inconclusive: 35.5 µM [inhibitor, single point]"}
{"compound": "CCOc1cccc(=O)c2c(C)n(CC3CCCO3)c(C)c12", "note": "(centres undefined)", "Potency": "inconclusive: 25.1 µM [inhibitor, partial curve]"}
{"compound": "CC(=O)c1ccc(/C=C/c2nc3ccccc3n2C)o1", "Potency": "inconclusive: 10 µM [inhibitor, partial curve]"}
{"compound": "Cn1c(SCC(=O)c2c(N)n(C)c(=O)n(C)c2=O)nnc1-c1ccc(F)cc1", "Potency": "inconclusive: 2.51 µM [inhibitor, full curve, poor fit]"}
{"compound": "COc1cc2c(=O)n(CCc3ccccc3)c(=O)n(CC(=O)Nc3ccccc3)c2cc1OC", "Potency": "inconclusive: 1.12 µM [inhibitor, full curve, poor fit]"}
{"compound": "COc1cc(NC(=O)CSc2nnc3c(C)cc4cc(C)cc(C)c4n23)c(C(=O)O)cc1OC", "activity, negative = inhibition": "inactive: -8.5%"}
{"compound": "CCc1ccc(OCC(=O)N/N=C(\\C)c2ccc(O)cc2O)cc1", "Potency": "inconclusive: 0.282 µM [inhibitor, full curve]"}
{"compound": "CCc1ccccc1N(C)C(=O)c1cc2c(=O)oc3ccccc3c2s1", "activity, negative = inhibition": "inactive: -10.7%"}
{"compound": "O=C(CCCCCCCC(=O)c1ccccc1)c1ccccc1", "Potency": "inconclusive: 14.1 µM [inhibitor, partial curve]"}
{"compound": "C/C(=C/c1oc2ccc(O)cc2c1[N+](=O)[O-])N(C)C", "Potency": "active: 3.98 µM"}
{"compound": "Cc1cccc(N(CC(=O)NC2CCCCC2)C(=O)Cn2nnc(-c3ccc(C)o3)n2)c1", "activity, negative = inhibition": "inactive: 1.01%"}
{"compound": "COc1cc(S(=O)(=O)N2CCN(Cc3ccc4c(c3)OCO4)CC2)c(C)cc1C", "activity, negative = inhibition": "inactive: -15.7%"}
{"compound": "COc1ccc(OC)c(NC(=O)c2cnn(-c3ccc(C)cc3)c2C2CCNCC2)c1", "Potency": "inconclusive: 28.2 µM [inhibitor, single point]"}
{"compound": "COc1ccccc1NC(=O)c1c(NC(=O)CCC(=O)O)sc2c1CCCCC2", "Potency": "inconclusive: 25.1 µM [inhibitor, single point]"}
{"compound": "Cc1ccc(S(=O)(=O)C(C#N)c2nc3ccccc3nc2N2CCCC2)cc1", "note": "(centres undefined)", "Potency": "inconclusive: 15.8 µM [inhibitor, partial curve]"}
{"compound": "CCc1ccc(N=CC2=C(O)CC(c3ccco3)CC2=O)cc1", "note": "(centres undefined)", "Potency": "inconclusive: 2 µM [inhibitor, full curve]"}
